Experimental data as given in PubChem BioAssay AID686979 (National Center for Advancing Translational Sciences (NCATS), 2013).
Several values for one entry are separate records, joined by “and”; a condition that tells them apart may be missing. Equal values may be shown once. Screen size: about 420,000 compounds; about 50,000 (12%) were called active. The inconclusive results got no clear call from the source; some entries with a clear call stand among them for comparison. Calls follow the shape of the dose curve; as a rule, active = well fitted inhibition curve with a large enough effect; inconclusive = small, poorly fitted or top-dose-only effect; inactive = flat fitted curve, though single readings scatter. No potency is given beside an inconclusive call; the fits are too rough.

Assay: qHTS for Inhibitors of human tyrosyl-DNA phosphodiesterase 1 (TDP1): qHTS in cells in presence of CPT; also: nearly all actives have a fitted effect of over 55% in size
Details: chicken DT40 Tdp1-/-;hTDP1 cells + 20 nM CPT, ATP luminescence, 48 h; activity change, negative = growth inhibition: at 46.2 µM (top of the series)
Summary of the method: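 Chicken DT40 Tdp1-/- cells complemented with human TDP1, 400 cells/well, exposed to compounds plus 20 nM camptothecin for at least 48 h at 37 C; viability read as ATP content by CellTiter-Glo luminescence.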
% is scaled to controls: 0 for no effect and ±100 for the full control effect; potency is read from the fitted curve at half-maximal effect; tags tell the direction and shape of the fitted curve.

Q: With `CCOC(=O)C1(C)CCCN1C(=O)c1ccc(C(F)(F)F)nc1C` (stereo unspecified) as the compound, how does the “activity change, negative = growth inhibition” value read?
A: inactive: 0.795%

Q: Which Potency does the source give for `Cc1ccc(S(=O)(=O)c2cc3c(=O)n4ccccc4nc3n(C3CCCC3)c2=N)cc1` here?
A: inconclusive [inhibitor, single point]

Q: For `CCOC(=O)c1sc(=NC(=O)CCS(=O)(=O)c2ccccc2)n(C)c1C`, which “activity change, negative = growth inhibition” value is on record?
A: inactive: 21.8%

Q: With `Cc1ccccc1OCCSc1nnc(C)n1-c1ccccc1` as the compound, how does the Potency read?
A: inconclusive [inhibitor, single point]

Q: Which “activity change, negative = growth inhibition” value does the source give for `C=CCC1(CC=C)CCCN1C(=O)Cn1nnnc1CN(C)C(C)C` here?
A: inactive: -0.577%

Q: For `Cc1ccc(NC(=O)c2cc(S(=O)(=O)N3CCOCC3)ccc2Cl)cc1S(=O)(=O)N1CCOCC1`, which Potency is on record?
A: inconclusive [inhibitor, single point]

Q: Which Potency does the source give for `COc1ccccc1C(=O)NNC(=O)C(=O)Nc1cccc(Cl)c1C` here?
A: inconclusive [inhibitor, single point]

Q: Which “activity change, negative = growth inhibition” value does the source give for `Cn1c(SCC(=O)N2CCCc3ccccc32)ncc(C(=O)Nc2ccccc2)c1=O` here?
A: inactive: -12.4%

Q: Which Potency does the source give for `Cc1cc(C)cc(-n2c3ccc(NC(=S)NC4CCCCC4)cc3c(=O)n2C)c1` here?
A: inconclusive [inhibitor, single point]

Q: For `O=C(CCS(=O)(=O)c1cccc2nonc12)NCCc1ccccc1Cl`, which activity change, negative = growth inhibition is on record?
A: inconclusive: -30.7% [inhibitor]

Q: With `CCCCN1CC(COCc2ccccc2)Oc2cccc(Oc3ccc(OC)cc3)c2S1(=O)=O` (stereo unspecified) as the compound, how does the Potency read?
A: inconclusive [inhibitor, single point]

Q: Which Potency does the source give for `CCc1nn2c(=O)cc(COC(=O)c3ccc(NC(=O)COc4ccc(C)cc4)cc3)nc2s1` here?
A: inconclusive [inhibitor, partial curve, poor fit]

Q: Which “activity change, negative = growth inhibition” value does the source give for `N#Cc1ccc(C(=O)NNC(=O)c2cccc(S(=O)(=O)N3CCOCC3)c2)cc1` here?
A: inactive: 0.577%

Q: Which Potency does the source give for `O=C(/C=C/c1ccc([N+](=O)[O-])cc1)Nc1ncc([N+](=O)[O-])s1` here?
A: active: 5.8 µM

Q: Which Potency does the source give for `COC(=O)[C@H](CCSC)NC(=O)c1cc2c(cn1)[nH]c1ccccc12` here?
A: active: 10.3 µM

Q: Which Potency does the source give for `COc1ccc(-c2nnc(NC(=O)c3ccc([N+](=O)[O-])o3)o2)c(OC)c1` here?
A: inconclusive [inhibitor, single point]

Q: Which Potency does the source give for `CCN(CC)S(=O)(=O)c1cccc(-c2nnc(SCc3nc4ccccc4s3)o2)c1` here?
A: inconclusive [inhibitor, single point]

Q: With `Cc1ccc(-c2nnc(N3CCN(C(=O)Cn4c(=O)n(C)c5ccccc54)CC3)c3ccccc23)cc1` as the compound, how does the Potency read?
A: inconclusive [inhibitor, partial curve, poor fit]

Q: Which Potency does the source give for `CCCCC(CC)C(=O)Nc1ccc(C#N)cc1` (stereo unspecified) here?
A: inconclusive [inhibitor, single point]

Q: With `C/C=C(\C)C(=O)N1CC2(CC(c3cccc(NC(=O)COc4ccc(Cl)cc4)c3)=NO2)C[C@@H]1C(N)=O` (stereo partly specified) as the compound, how does the “activity change, negative = growth inhibition” value read?
A: inactive: -0.301%

Q: Which Potency does the source give for `CCOC(=O)C(C)Sc1nc(-c2ccccc2Cl)cc(-c2ccccc2)c1C#N` (stereo unspecified) here?
A: active: 13 µM

Q: With `Cc1cc(C)cc(NC(=O)CSc2nc(=O)n(Cc3ccccn3)c3c2CCC3)c1` as the compound, how does the Potency read?
A: inconclusive [inhibitor, single point]

Q: Which “activity change, negative = growth inhibition” value does the source give for `CC(=O)Nc1ccc(S(=O)(=O)NCCC(=O)Nc2ccc(C)c(F)c2)cc1` here?
A: inactive: 5.07%

Q: For `CC(=O)c1cccc(Nc2cc(C)nc3ccc(C)cc23)c1`, which Potency is on record?
A: inconclusive [inhibitor, single point]

Q: Which Potency does the source give for `Cc1ccc(C(=O)COC(=O)C(Cc2c[nH]c3ccccc23)NC(=O)c2ccc(C(C)(C)C)cc2)cc1` (stereo unspecified) here?
A: active: 18.4 µM

Q: With `CC[C@]1(O)C[C@@H]2CN(CCc3c([nH]c4ccccc34)[C@@](C(=O)OC)(c3cc4c(cc3OC)N(C)[C@H]3[C@@](O)(C(=O)OC)[C@H](OC(C)=O)[C@]5(CC)C=CCN6CC[C@]43[C@@H]65)C2)C1` as the compound, how does the Potency read?
A: active: 65.1 nM and active: 47.3 nM and active: 146 nM

Q: Which Potency does the source give for `COCCNC(=O)COC(=O)c1nsc(Cl)c1Cl` here?
A: inconclusive [inhibitor, single point]

Q: Which “activity change, negative = growth inhibition” value does the source give for `Cc1ccccc1C(=O)Nc1cccc(C(=O)OCc2cc(=O)n3ccsc3n2)c1` here?
A: inactive: -21.5%

Q: Which Potency does the source give for `CCC(C)(C)c1ccc(OCCN2C(=O)NC(C)(C)C2=O)cc1` here?
A: inconclusive [inhibitor, partial curve]

Q: With `O=C(O)Cc1ccc(S(=O)(=O)N2CCCC2)s1` as the compound, how does the “activity change, negative = growth inhibition” value read?
A: inactive: -4.14%

Q: With `CC1CCC(NC(=O)C(Cc2ccccc2)n2cccc2)CC1` (stereo unspecified) as the compound, how does the Potency read?
A: inconclusive [inhibitor, single point]

Q: Which “activity change, negative = growth inhibition” value does the source give for `O=C(NNC(=S)NC1CCCCC1)c1cccs1` here?
A: inactive: 2.01%

Q: For `Cn1cccc1/C=N/N1CCN(c2ccccc2)CC1`, which “activity change, negative = growth inhibition” value is on record?
A: inactive: 7.75%

Q: Which Potency does the source give for `CN(C)S(=O)(=O)N1CCC(Oc2cccc(C(=O)N3CCCCCCC3)c2)CC1` here?
A: inconclusive [inhibitor, single point]

Q: Which Potency does the source give for `COc1ccc(-n2cc(-c3ccccc3)c3c(NC4CCCC4)ncnc32)cc1` here?
A: active: 23.1 µM

Q: For `O=C(Nc1cccc(C(F)(F)F)c1)C1Cc2c(-c3ccccc3Oc3ccccc3)ccnc2O1` (stereo unspecified), which Potency is on record?
A: active: 23.1 µM

Q: For `COc1ccc(/C=C(/NC(=O)c2ccccc2)C(=O)N2CCOCC2)cc1OC`, which “activity change, negative = growth inhibition” value is on record?
A: inactive: 10.5%

Q: Which Potency does the source give for `COc1ccc(CNc2ccccc2SC)cc1OC` here?
A: inconclusive [inhibitor, single point]

Q: Which Potency does the source give for `CCOC(=O)c1c(NC(=O)CSc2nnc(N)s2)sc(C)c1-c1ccc(C)cc1` here?
A: inconclusive [inhibitor, single point]

Q: With `O=C(NC(Cc1ccccc1)c1ccc2c(c1)OCCCO2)c1ccc(F)cc1` (stereo unspecified) as the compound, how does the Potency read?
A: inconclusive [inhibitor, partial curve, poor fit]

Q: With `O=C(Cc1cccs1)N1CCN(c2cccc(Cl)c2)CC1` as the compound, how does the “activity change, negative = growth inhibition” value read?
A: inactive: -18.8%

Q: Which Potency does the source give for `O=C(NCc1ccccn1)C1Nc2ccc(OC(F)(F)F)cc2C2C=CCC12` (stereo unspecified) here?
A: inconclusive [inhibitor, partial curve]

Q: Which Potency does the source give for `COc1cc(/C=N/Nc2ccccn2)cc(OC)c1O` here?
A: inconclusive [inhibitor, partial curve, poor fit]

Q: Which Potency does the source give for `O=C(COC(=O)c1ccc(O)cc1)Nc1cc(S(=O)(=O)N2CCCCCC2)ccc1Cl` here?
A: inconclusive [inhibitor, single point]

Q: With `CCN(CC)c1ccc(C(=O)OCC(=O)Nc2sccc2C#N)cc1` as the compound, how does the Potency read?
A: inconclusive [inhibitor, single point]

Q: For `CCN(CC)C(=O)C1=C(C)N(CCC2=CCCCC2)C(=O)C(CC(=O)NCCCCc2ccccc2)C1` (stereo unspecified), which Potency is on record?
A: inconclusive [inhibitor, single point]

Q: For `COc1cccc(CN(C)C(=O)c2cc(S(=O)(=O)NCc3ccccc3)ccc2C)c1OC`, which Potency is on record?
A: inconclusive [inhibitor, single point]

Q: Which Potency does the source give for `COc1ccc(C(=O)COC(=O)C2CCCN2C(=O)C23CC4CC(CC(C4)C2)C3)cc1` (stereo unspecified) here?
A: active: 23.1 µM

Q: Which Potency does the source give for `O=C(c1ccc(Cl)c(S(=O)(=O)N2CCCC2)c1)N1CCN(c2ccccc2)CC1` here?
A: active: 18.4 µM

Q: With `Nc1ccc2nc(-c3ccc(-c4nc5ccc(N)cc5[nH]4)cc3)[nH]c2c1` as the compound, how does the Potency read?
A: inconclusive [inhibitor, single point]

Q: For `CC(C)COc1ccc(-c2nn(-c3ccccc3)cc2C(=O)Nc2nccs2)cc1`, which Potency is on record?
A: inconclusive [inhibitor, single point]

Q: With `COc1ccc(C(=O)NCCc2ccc(C)cc2)cc1OC1CCN(C(C)=O)CC1` as the compound, how does the Potency read?
A: inconclusive [inhibitor, single point]

Q: With `Cc1ccc(S(=O)(=O)C2C(=O)N(C)C3(C)CC2c2ccccc2O3)cc1C` (stereo unspecified) as the compound, how does the Potency read?
A: inconclusive [inhibitor, partial curve, poor fit]

Q: For `Cc1nc2nc(SCC(=O)NCCCN3CCCCCC3)nn2c(C)c1Cc1ccccc1Cl`, which Potency is on record?
A: inconclusive [inhibitor, single point]

Q: Which Potency does the source give for `Cc1cccc(C(=O)N[C@H](C(=O)Nc2cccc(S(=O)(=O)N3CCCC3)c2)C(C)C)c1` here?
A: inconclusive [inhibitor, single point]

Q: Which Potency does the source give for `CCc1c(C)c2cc(Cl)c(O)c(CN(CC)CC)c2oc1=O` here?
A: inconclusive [inhibitor, full curve]

Q: Which Potency does the source give for `COc1ccc2sc(N(Cc3cccnc3)C(=O)COc3ccccc3)nc2c1` here?
A: inconclusive [inhibitor, single point]

Q: With `Cc1ccc(-n2ncc(C(=O)Nc3cc(Cl)cc(Cl)c3)c2C2CCNCC2)cc1C` as the compound, how does the Potency read?
A: inconclusive [inhibitor, single point]

Q: With `Cc1cc(S(=O)(=O)N2CCN(c3ccccn3)CC2)c(C)cc1Cl` as the compound, how does the Potency read?
A: inconclusive [inhibitor, partial curve, poor fit]

Q: For `CCOc1ccc(CCNc2nc3ccccc3n3c(C)nnc23)cc1OCC`, which Potency is on record?
A: inactive

Q: For `CC(C)COc1ccc(-c2nn(-c3ccccc3)cc2/C=C2/SC(=S)N(CC(=O)O)C2=O)cc1`, which Potency is on record?
A: inconclusive [inhibitor, single point]

Q: For `COc1ccc(CCNC(=O)c2ccc(Cn3c(=O)c4ccccc4n(Cc4cccc(C)c4)c3=O)cc2)cc1OC`, which Potency is on record?
A: inconclusive [inhibitor, full curve]

Q: For `Cc1nc(Sc2ccc(Cl)cc2)c(C#N)c(C)c1[N+](=O)[O-]`, which Potency is on record?
A: inconclusive [inhibitor, single point]

Q: Which “activity change, negative = growth inhibition” value does the source give for `CC1CN(C(=O)c2ccc(S(=O)(=O)Nc3cccc(C(F)(F)F)c3)cc2)CC(C)O1` (stereo unspecified) here?
A: inactive: -27.6%

Q: Which “activity change, negative = growth inhibition” value does the source give for `Cc1cccc(-c2cc(NCCc3cccnc3)n3nccc3n2)c1` here?
A: inactive: -17.5%

Q: For `CCn1cnc2c(=O)oc3ccc(S(=O)(=O)Nc4ccc(OC)cc4)cc3c21`, which Potency is on record?
A: inconclusive [inhibitor, partial curve, poor fit]
